# Results from the supplement of paper PMC5499739.
# The full ranking holds about 16,000 sequences; the median of “Z-score” is about -0.37, and the highest 2% start at about 3.2. The list shows a part of the results.
# Test system: RBM10 RRM1-ZnF (GST-tagged construct)
# Assay: RNAcompete 7-mer binding Z-score; higher = stronger binding preference
# Outline: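 A designed pool of 241 399 RNAs, each up to 41 nt and transcribed from microarray-derived DNA templates, was used at 1.5 nmol with 20 pmol of GST-tagged RBM10 constructs. The mixture, in 1 ml Hepes pH 7.8 buffer with KCl, NaCl, glycerol, DTT, BSA and glutathione Sepharose beads, was held 30 min at 4°C and then washed four times for 2 min at 4°C. Bound RNA was read out by microarray hybridisation, and enrichment of each heptamer motif was scored as a one-sided Z-score over the probes carrying it.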
row,Sequence,RNAcompete 7-mer binding Z-score
1,GUCUUCA,-0.565
2,CCCGGCG,0.0853
3,GAUCUCA,-0.652
4,UCUUACG,-0.779
5,GAAGCCC,-0.62
6,GUAUUUG,-0.132
7,CGUUAAU,-0.487
8,AGCGAGC,2.93
9,GUCUUGG,0.186
10,CGUCCGG,-0.396
11,CGCGGCA,-0.184
12,GAUUUGG,1.55
13,UUUACCG,-0.808
14,AACCAUG,-0.415
15,UUACCGG,-0.36
16,GGGCCAA,0.511
17,UUAUGGG,1.89
18,CUAGCUG,-0.386
19,UGGGAUG,3.61
20,CCGGUCC,-0.568
21,AACCUUA,-0.818
22,GCGGACU,0.313
23,AAGCUAC,-0.311
24,CAGUGUU,-0.506

row,Sequence,RNAcompete 7-mer binding Z-score
1,GGUAUCA,0.699
2,AGAAAAA,0.0365
3,UACAGGG,2.22
4,AAUAGUG,0.131
5,CGAUCGU,-0.629
6,GGCUAAU,0.0788
7,CCCAUAA,-0.815
8,GAACGAC,-0.184
9,UGUGGGU,3.46
10,GGGCUGU,1.3
11,UCGUAGU,-0.493
12,CUUCGAG,-0.681
13,AAACCCG,-0.854
14,AGGAGGC,1.37
15,ACAUACA,-0.506
16,GUAUAGG,2.21
17,GAAUUGA,0.186
18,GCGCUUG,-0.334
19,CGGGCAC,0.842
20,CCAUUGU,-0.655
21,CCAUCUC,-0.785
22,GAGGGGA,3.62
23,ACGUUUA,-0.655
24,AGAGUGG,2.81

row,Sequence,RNAcompete 7-mer binding Z-score
1,CAUCCAC,-0.542
2,GCACUGU,-0.272
3,UUCGUAA,-0.802
4,GUAACAG,0.923
5,CCAUGGU,0.254
6,UAUCUAA,-0.61
7,UAACUGU,-0.522
8,UUUGGGC,0.923
9,UGCAUAU,-0.363
10,AUUAGCC,-0.772
11,CCCUCAA,-0.717
12,UUACCCU,-0.759
13,UAGCUGC,-0.604
14,CGUAUGG,0.745
15,AACCCUG,-0.587
16,GUGGCCU,-0.149
17,UCAUCGA,-0.584
18,AGACUAA,-0.435
19,UCGGCAA,-0.311
20,CAAUUGA,-0.275
21,ACAGGAA,1.25
22,UCUGGGG,1.39
23,GCUUCCU,-0.659
24,AAGGGCA,2.78

row,Sequence,RNAcompete 7-mer binding Z-score
1,GCAGCUA,-0.162
2,ACUGUCG,-0.522
3,AGGAAAU,1.28
4,GGUCCAA,-0.139
5,CAGGUAG,2.32
6,AGGGUGU,3.11
7,CACAUAG,-0.334
8,UAACUGG,0.355
9,CAGAUCA,-0.34
10,CAUGGGU,2.24
11,UCACACC,-0.698
12,CUGGUAU,-0.181
13,AGACCUU,-1.1
14,CCUCAUC,-0.737
15,ACAAAUU,-0.642
16,GAUCCGU,-0.73
17,GGGCUUA,0.742
18,UCAGGAG,0.959
19,UAAAACG,-0.178
20,CACGUUG,-0.155
21,UCGUUGU,-0.578
22,GGAGACU,0.79
23,CGCUUUU,-0.941
24,CCCUAAU,-0.698

row,Sequence,RNAcompete 7-mer binding Z-score
1,UUAGUGC,-0.409
2,UUCGAAG,-0.197
3,ACGUGUA,0.00404
4,GGGCCAG,1.03
5,UUCGUGA,-0.496
6,UAUUCAU,-0.49
7,UCUUAAC,-0.889
8,GCCUCGC,-0.448
9,UUUGCCG,-0.685
10,CGUCCAC,-0.72
11,ACACAGG,0.855
12,ACAGUAU,-0.357
13,GAGCCCA,-0.561
14,GGUCACG,0.647
15,AAAGUGU,0.413
16,CAAAGGG,2.23
17,GGACGUA,0.833
18,CGACGAG,-0.0285
19,UUAAGCC,-0.844
20,AUAGAAA,0.264
21,UUCAAUC,-0.769
22,AGCUUUG,-0.756
23,CGUGUUG,0.124
24,UCGCGCU,-0.688

row,Sequence,RNAcompete 7-mer binding Z-score
1,AUCGCGG,0.0463
2,CCUCGUU,-0.798
3,GCCGAAU,-0.792
4,CCUGAGC,-0.464
5,CGUUUUG,-0.422
6,GGCGCGA,0.439
7,AUUCUAA,-0.782
8,AGACUAC,-0.782
9,AUCUGCG,-0.626
10,AGGUCGG,1.26
11,GGAGGUC,1.77
12,CAAACUG,-0.457
13,UGGUGUC,0.807
14,UGUGAGU,0.472
15,ACGGAUG,1.77
16,GUGGCCG,0.485
17,GAUCGGG,2.27
18,CGCGAGU,-0.337
19,AACUCAG,-0.548
20,GUCAGGC,0.709
21,UAUAUCA,-0.639
22,ACGCGGU,0.196
23,CCCUGAC,-0.626
24,ACCAAUG,-0.454

row,Sequence,RNAcompete 7-mer binding Z-score
1,GCACAGA,0.0105
2,UCAUCUG,-0.844
3,CGGGAUG,2.48
4,GAGACAC,-0.0902
5,GUCUUUU,-0.646
6,AAUACAU,-0.292
7,AUGAAGG,2.96
8,AUGUCAG,0.03
9,AGCAUGU,-0.269
10,UCCUUCU,-0.789
11,CAAUUUC,-0.857
12,UGUAUAC,-0.327
13,AACACGC,-0.425
14,UAUUAGU,-0.314
15,GACGACA,0.0105
16,UUUGCUU,-0.88
17,CUAACGU,-0.626
18,ACCGUCU,-0.873
19,UAUGUUU,-0.253
20,AUGCCUG,-0.698
21,CUUUCCC,-0.798
22,UACCUUU,-0.867
23,CUCAGGU,-0.0447
24,UUUCGGC,-0.587

row,Sequence,RNAcompete 7-mer binding Z-score
1,AUCCAAG,-0.591
2,CCAACCG,-0.681
3,ACCGGCG,-0.279
4,CAAGUGG,1.39
5,UUCAGCG,-0.642
6,GAGGUCG,0.959
7,UUGUAGC,-0.509
8,GUCCUAA,-0.542
9,GAAGCAU,0.128
10,AGACUUC,-0.899
11,GGCCUUU,-0.782
12,CAUUUUG,-0.896
13,CGUCGGU,-0.0707
14,UUGAAGC,-0.318
15,AACUAAU,-0.412
16,UUGAUUC,-0.792
17,CUCUACG,-0.662
18,UGGGUUG,3.04
19,GGGAUAC,2.5
20,UCUUGGU,-0.116
21,AGCGCCU,-0.613
22,AGACCUC,-1.03
23,GAGGCAA,0.784
24,AUGAAAA,-0.0772

row,Sequence,RNAcompete 7-mer binding Z-score
1,GACCGAU,-0.694
2,UAACGUU,-0.545
3,UCAAUCU,-0.678
4,UCACGUA,-0.327
5,GCACUUC,-0.483
6,GGAGACC,0.859
7,CUAGGAG,0.608
8,UGACUAA,-0.334
9,AAAGAUC,-0.396
10,AAGACCA,-0.366
11,GUCAAUC,-0.379
12,AUCCACC,-0.461
13,AGGUGCU,0.852
14,CCUCCAG,-0.623
15,ACCUCGU,-0.867
16,CAAGCCA,-0.717
17,CUGUGAG,0.0625
18,CCGUGAG,-0.441
19,UAUAUAA,-0.519
20,AGCAUUG,-0.0804
21,UAUUAAA,-0.487
22,UAGUUAG,0.326
23,GCCAUAC,-0.668
24,ACAACGA,-0.175

row,Sequence,RNAcompete 7-mer binding Z-score
1,CUAUGAU,-0.532
2,GCGGCUA,0.183
3,UCCUCGA,-0.824
4,CUACCAG,-0.724
5,AACCGUC,-0.668
6,CUCUGAG,-0.574
7,CCUUUAG,-0.854
8,CAAGCUC,-0.698
9,CAGCCAU,-0.831
10,UAAUAGG,0.872
11,GAAAGCC,-0.48
12,UAAUUAG,-0.383
13,CACUGCG,-0.0967
14,CGACUGA,-0.448
15,CCUGGUU,-0.487
16,CGUCAAC,-0.561
17,UCACGCA,-0.571
18,UCAUGAC,-0.584
